In all, about 150,000 compounds went through this assay and about 540 (0.36%) showed an effect of 50% or more. This is one part of the list.

For the test, the system named is Plasmodium falciparum. The test can be described thus: Primary screen in NF54 nanoGlo assay, in single point, at 2uM, 72h; a lower Z score goes with more inhibition. It counts as functional, Erythrocyte. The note with it: timepoint 72 hour.
In the case of `COc1ccnc(CN(C)Cc2cn(C)nc2C)c1OC`, the “% Inhibition” value is listed as -7% and the Z score was determined as 1.37.
In the case of `CCCn1nccc1-c1ccc(CNC(C)=O)cn1`, the “% Inhibition” value worked out at 7% and the Z score is listed as -0.91.
The matching figures for `Cc1c(Br)cccc1CCNC(=O)C1CS(=O)(=O)C1`: -9% and 1.21.
`CCc1c(C)nc(-c2cccc(C)c2)nc1N1CCN(C(=O)C[C@@H](C)CC(C)(C)C)CC1`: the “% Inhibition” value is -20% and the Z score amounted to 2.85.
The matching figures for `CNc1cc([C@H]2C[C@@H](NC(=O)NCCc3ccccc3F)C2)nc(N)n1`: -19% and 3.21.
In the same order, the values of `Cc1ncc(CC(=O)N(C)Cc2csc(-c3ccccc3)n2)c(=O)[nH]1` are 4% and -0.71.
Regarding `Cc1ccc(CN2C[C@H](C(=O)NCCc3ccncc3)C3(CCOCC3)C2)s1`, the “% Inhibition” value was -1% and the Z score is listed as 0.1.
As to `CN(C)c1ccc(-c2nc([C@H]3CCOC3)no2)cn1`, the “% Inhibition” value is recorded as -2% and the Z score was 0.38.
As to `Cc1cc(C)n(-c2ccc(C(=O)N3CCN(c4ccccc4F)CC3)cc2)n1`, the “% Inhibition” value is recorded as -6% and the Z score is reported as 0.75.
The matching figures for `CN(C)CC1(O)CCC2(CCN(C(=O)C3CCCC3)CC2)CC1`: -8% and 1.59.
The matching figures for `Cc1nn(C)cc1S(=O)(=O)N1CCN[C@H](C)C1`: -1% and 0.07.
The matching figures for `CC(=O)Nc1c2n(c3ccccc13)C[C@@](C)(C(=O)NC1CCCC1)N(Cc1ccccc1Cl)C2=O`: -3% and 0.33.
Turning to `COc1ccc(C(=O)N[C@H](C(=O)NCC2CCCCC2)C(C)C)cc1`, the “% Inhibition” value is -16% and the Z score turned out to be 2.28.
As for `CCc1cnc(NCCc2nc(C)cc(C)n2)nc1`, the “% Inhibition” value is on record as -11% and the Z score is 1.11.
In the same order, the values of `Cc1cc2c(cc1C)NC(C(F)(F)F)=CC(c1cccs1)=N2` are -16% and 3.
In the case of `CC(C)c1nnsc1CNc1cc(CN)ncn1`, the “% Inhibition” value is reported as -1% and the Z score was determined as 0.13.
Take `NS(=O)(=O)c1cccc2c1CCCN2CC(=O)Nc1cccc(N2CCCC2=O)c1`: the “% Inhibition” value worked out at 9% and the Z score is -1.23.
Turning to `CCN=C(NCc1cccc(N(C)C)n1)NCC(C)(C)OC`, the “% Inhibition” value stood at 8% and the Z score was -1.48.
The matching figures for `CN1CCN(S(=O)(=O)c2cnn(C3CCCC3)c2)C[C@@H]1CO`: -5% and 0.72.
The matching figures for `CC(CC(O)c1ccccc1)Nc1nc(C(C)C)no1` (configuration not stated): -7% and 0.85.
Consider `Cc1cc(C(=O)N2CC3CCCCC3C2)nn1C` (configuration not stated), for which the “% Inhibition” value is recorded as -10% and the Z score is recorded as 1.23.
In the same order, the values of `CCc1ccc(NC(=O)Cn2nc(NC)c(-c3nc(-c4ccccc4)no3)c2N)cc1` are -4% and 0.54.
As for `CCN(CC)c1ncc(CN2CCCC3(C2)OCCO3)s1`, the “% Inhibition” value is recorded as -2% and the Z score came to 0.26.
In the same order, the values of `CCNC(=O)NCCc1ncc(C)n1C1CCCCCCC1` are -10% and 1.5.
In the same order, the values of `Cc1nc(C(=O)Nc2cc(N3CCNC3=O)ccc2F)c(C)s1` are 33% and -3.79.
In the same order, the values of `c1cncc(CN2CCn3nc4c(c3C2)CCC4)c1` are -11% and 1.36.
On to `Cc1cccc(CN2CCC[C@@]3(CCN(C(=O)c4cc(C(C)C)n[nH]4)C3)C2)c1`, for which the “% Inhibition” value is 1% and the Z score is recorded as -0.13.
In the same order, the values of `O=C1CCCN1CCN1CCO[C@@H](Cc2ccccc2Cl)C1` are -2% and 0.34.
The matching figures for `Cc1ccc(-c2noc(-c3ccc(N4CCN(c5ncccn5)CC4)nc3)n2)cc1`: 0% and 0.08.
With `CO[C@@H](C)c1noc(-c2scnc2C)n1`, the “% Inhibition” value was determined as 34% and the Z score is -3.81.
Take `CN(C)C(=O)c1cccc(S(=O)(=O)N2CC[C@H](OCc3ccccn3)C2)c1`: the “% Inhibition” value is given as -9% and the Z score worked out at 1.15.
The matching figures for `COc1cccc(CC(=O)N2CC(N3C(=O)CNC3=O)C2)c1`: -11% and 2.09.
In the same order, the values of `CN1CCN(C(=O)OCC(F)(F)F)CC1` are -3% and 0.44.
With `Fc1cnc(N2CCO[C@H](c3ccccc3)C2)nc1`, the “% Inhibition” value was -11% and the Z score worked out at 1.37.
The matching figures for `O=C1CCN(C(=O)C[C@@H](c2ccccc2)c2ccc(Cl)cc2)CCN1`: -6% and 1.23.
In the same order, the values of `O=C(c1cncc(O)c1)N1C[C@H]2CCC[C@@H](C2)C1` are -5% and 0.85.
Consider `C[C@H](NC(=O)c1ccc(Cl)cc1Br)c1nccs1`, for which the “% Inhibition” value is given as -3% and the Z score is listed as 0.6.
Regarding `Cc1ccc(C)n1-c1ccc(Cl)c(C(=O)NCc2nnc3ccccn23)c1`, the “% Inhibition” value is -35% and the Z score stood at 4.1.
In the same order, the values of `COc1ccc(-n2nc(-c3nnc(-c4ccccc4)[nH]3)c(N3CCN(c4ccccn4)CC3)n2)cc1` are -52% and 6.08.
The matching figures for `Cc1ccc(C)c(-n2nc(C)c(CNCC3(O)CCOCC3)c2Cl)c1`: -3% and 0.4.
The matching figures for `O=S(=O)(c1ccoc1)N1CCC[C@H](c2ccncc2)CC1`: -30% and 3.54.
For `O=C(Nc1cnc2c(c1)COCC2)c1cccc(OC(F)F)c1`, the “% Inhibition” value is listed as -1% and the Z score was determined as 0.19.
In the same order, the values of `O=C1CCc2cc(NC(=O)C3CCCCC3)ccc2N1` are 15% and -2.78.
The matching figures for `NC[C@H]1CCN(C(=O)c2cc(F)ccc2-c2cccc(C(F)(F)F)c2)C1`: -6% and 0.89.
In the same order, the values of `COC(=O)c1ccc(N)c(OC(F)(F)F)c1` are 3% and -0.36.
For `C1=CC2(CCNCC2)Oc2cc(OCc3ccccc3)ccc21`, the “% Inhibition” value is on record as -5% and the Z score is 0.65.
The matching figures for `Cn1c(=S)sc2c(N3CCCCCC3)ncnc21`: -14% and 1.67.
In the same order, the values of `CS(=O)(=O)NC[C@](O)(c1ccsc1)c1cccs1` are -2% and 0.35.
The matching figures for `C[C@H](NC(=O)N1CCOCC1)c1ccc2c(c1)OCCO2`: -2% and 0.4.
`Cc1ccc(NC(=O)Cn2cnc3c(-c4ccccc4)nsc3c2=O)cc1Cl`: the “% Inhibition” value is given as -7% and the Z score came to 1.18.
In the same order, the values of `O=C(c1c(F)cccc1F)N1CCc2nc(N3CCCCC3)nc(Oc3ccccc3F)c2C1` are -4% and 0.43.
In the same order, the values of `CC(=O)O[C@@H](C)C(=O)N1CCC(n2nc(C(C)C)cc2C(C)C)CC1` are -7% and 1.35.
The matching figures for `COc1cc(NCc2cc3c(nc2OC)CN(C2CCCC2)C3=O)ncn1`: -11% and 1.4.
`O=C(CCCC(O)c1ccccc1)NCC1CCCOC1` (configuration not stated): the “% Inhibition” value is listed as -6% and the Z score amounted to 1.13.
In the same order, the values of `NC(=O)NCC(=O)Nc1cccc(Br)c1` are -13% and 2.07.
The matching figures for `Cc1cc([C@@H]2CCCCN2C(=O)CN2C(=O)CNC2=O)no1`: -4% and 0.81.

A word on the % Inhibition: it is the relative decrease from the control value, in per cent.

The record behind these values is ChEMBL document CHEMBL4888484, “Replenishing the malaria drug discovery pipeline: Screening and hit evaluation of the MMV Hit Generation Library 1 (HGL1) against asexual blood stage Plasmodium falciparum ,using a nano luciferase reporter read-out” (2022).
